PubChem BioAssay AID651820 (National Center for Advancing Translational Sciences (NCATS), 2012)
Out of some 340,000 compounds screened, about 12,000 (3.5%) were called active. Inconclusive results, whose numbers are uncertain, are shown with a selection of clear calls. Calls come from the whole dose curve; as a rule, active = well fitted inhibition curve with a large enough effect; inconclusive = small, poorly fitted or top-dose-only effect, or another doubt; inactive = no such curve, though single readings can be large or run the other way. No potency is given beside an inconclusive call; the fits are too rough.

Assay: qHTS Assay for Inhibitors of Hepatitis C Virus (HCV)
Details: Huh7.5.1 HCVcc-Cre (HCVcc is cell-culture hepatitis C virus) infection, luciferase reporter, 44 h; activity change, negative = inhibition: at 41.8 µM (top of the series)
In short: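 Luciferase read-out (15 sec integration) after a 15 min room-temperature substrate step quantifies HCVcc-Cre infection. Cells, 1,000 per well, had compound added 4 h post-plating, then virus at ~0.5 moi, and were cultured 44 h.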
% is set by controls: 0 for no effect and ±100 for the full control effect; potency is the fitted concentration of half-maximal effect; tags give direction and shape of the fitted curve.

Row | Compound | Potency | activity change, negative = inhibition
1 | COc1ccc(-c2csc(NC(=O)c3ccc(S(C)(=O)=O)cc3)n2)cc1 | inconclusive [inhibitor, full curve] | –
2 | Clc1ccc(OCc2nn3c(C4CCCCC4)nnc3s2)c(Cl)c1 | – | inactive: -16.3%
3 | CC(C)C(C(=O)Nc1cccnc1)N1C(=O)c2ccccc2C1=O (stereo unspecified) | – | inactive: 15.4%
4 | CC(C)(C)c1cc(CCC(=O)Nc2ccncc2)cc(C(C)(C)C)c1O | inconclusive [inhibitor, full curve] | –
5 | CCN(c1ccccc1)S(=O)(=O)c1ccc(OC)c(NC(=O)c2cccs2)c1 | inconclusive [inhibitor, partial curve] | –
6 | CCOC(=O)c1nn(-c2ccccc2)c(-c2ccccc2)c1C(=O)c1ccccc1 | inconclusive [inhibitor, single point] | –
7 | Cc1nn(Cc2ccccc2)c2sc(C(=O)N3CCN(Cc4ccc5c(c4)OCO5)CC3)cc12 | inconclusive [inhibitor, single point] | –
8 | COc1cnc(N(C)C)nc1Sc1ccc(Cl)cc1 | inconclusive [inhibitor, partial curve, poor fit] | –
9 | COC(=O)c1c(C(=O)OC)c2cccc3cc(-c4ccccc4)c4ccc1c4n32 | active: 1.78 µM | –
10 | CC(=O)c1ccc(-c2cccc([C@H]3[C@@H]4C=CC[C@@H](C)[C@@H]4C(=O)N3Cc3ccccc3)c2)cc1 | active: 11.2 µM | –
11 | COc1ccc(OCC(=O)Nc2cc(NC(=O)c3ccco3)ccc2OC)cc1 | – | inactive: -16.7%
12 | CCCn1c(=O)n(C)c(=O)c2c(SCC(=O)Nc3cc(C)on3)nc(C(C)(C)C)nc21 | active: 10 µM | –
13 | COc1ccccc1-c1nnc(Sc2nc([N+](=O)[O-])nn2C)o1 | active: 10 µM | –
14 | COc1ccc(S(=O)(=O)N2CCc3ccccc32)cc1C(=O)Nc1ccc(C(N)=O)cc1 | inconclusive [inhibitor, partial curve] | –
15 | c1ccc(Nc2ccc(Nc3ccccc3)cc2)cc1 | inconclusive [inhibitor, single point] | –
16 | CCOc1ccc(N2CC(C(=O)NCC(=O)Nc3ccc(F)c(F)c3F)CC2=O)cc1 (stereo unspecified) | – | inactive: 4.46%
17 | CC(=O)c1ccc(NC(=O)c2cn(-c3ccccc3)nc2-c2ccncc2)cc1 | – | inactive: 1.06%
18 | Cc1nn(Cc2ccccc2Cl)c(C)c1NC(=O)c1ccn(C)n1 | – | inactive: 1.84%
19 | Cc1nn(Cc2cccc(C(=O)Nn3cc([N+](=O)[O-])cn3)c2)c(C)c1[N+](=O)[O-] | inconclusive [inhibitor, single point] | –
20 | O=C(Nc1ccc2ccccc2n1)c1ccccc1Br | inconclusive [inhibitor, single point] | –
21 | CC(C)c1ccccc1NC(=O)CCc1nc2ccccc2s1 | – | inactive: -1.15%
22 | COC1C(O)C(C)OC(OC2CCC3(C=O)C(CCC4C3CCC3(C)C(C5=CC(=O)OC5)CCC43O)C2)C1O (stereo unspecified) | inconclusive [inhibitor, full curve, poor fit] | –
23 | Cc1ccc(CCNC(=O)CNC(=S)N(Cc2ccccc2)Cc2cccnc2)cc1 | inconclusive [inhibitor, single point] | –
24 | CNC(=S)N/N=C/c1c(C)nn(-c2cccc(Cl)c2)c1Cl | inconclusive [inhibitor, full curve, poor fit] | –

Row | Compound | Potency | activity change, negative = inhibition
25 | COc1ccccc1-c1cc(C(F)(F)F)nc(S(=O)(=O)CCCC(=O)NCc2ccc(F)cc2)n1 | inconclusive [inhibitor, single point] | –
26 | O=C(NCc1cn(-c2ccccc2)nc1-c1ccc(F)cc1)c1cccc([N+](=O)[O-])c1 | inconclusive [inhibitor, single point] | –
27 | Oc1[nH]c2ccccc2c1N=Nc1ccccc1F | inconclusive [inhibitor, partial curve] | –
28 | CCOC(=O)c1ccc(N2CCN(c3ccccc3F)CC2)c(NC(=O)Nc2cccc(OC)c2)c1 | inconclusive [inhibitor, full curve] | –
29 | Cc1ccc(C(=O)OCC(=O)c2c[nH]c3ccccc23)cc1 | – | inactive: -13.7%
30 | COc1ccc(CCOC(=O)c2ccc(N)c([N+](=O)[O-])c2)cc1 | inconclusive [inhibitor, single point] | –
31 | Cc1cc(C)n2nc(SCc3cccc(S(=O)(=O)N(C)C)c3)nc2n1 | inconclusive [inhibitor, single point] | –
32 | CC(=O)c1ccc(OCCCC(=O)Nc2cc(S(=O)(=O)N(C)C)ccc2C)cc1 | – | inactive: -15.5%
33 | O=C(Nc1ccc(S(=O)(=O)N2CCCCC2)cc1)C1CC(=O)N(c2ccc(Cl)cc2)C1 (stereo unspecified) | inconclusive [inhibitor, partial curve] | –
34 | S=C(Nc1ccc(Oc2ccccc2)cc1)NC1CCCCCC1 | inconclusive [inhibitor, partial curve] | –
35 | C#CCNC(=O)c1ccc(OCc2ccccc2)cc1Cl | – | inactive: 0.0899%
36 | COc1ccccc1OCCSc1nc2ccccc2c(=O)[nH]1 | inconclusive [inhibitor, single point] | –
37 | CC(=O)Oc1ccc2c(=O)c(-c3nc4ccccc4s3)coc2c1 | – | inactive: -2.45%
38 | COc1ccc(NC(=O)C2CCCN2C(=O)Nc2ccc(OC)cc2)cc1 (stereo unspecified) | – | inactive: 16.6%
39 | O=C(Cn1cc(SCc2ccc(Cl)cc2)c2ccccc21)N1CCOCC1 | inconclusive [inhibitor, single point] | –
40 | CC(CCc1ccccc1)NCc1ccncc1 (stereo unspecified) | – | inactive: 2.09%
41 | Cc1ccc(S(=O)(=O)/N=C2/C=C(Sc3ncn[nH]3)C(=O)c3ccccc32)cc1 | active: 3.98 µM | –
42 | CCOc1ccccc1-c1cc(-c2n[nH]c(=S)n2CC)c2ccccc2n1 | inconclusive [inhibitor, single point] | –
43 | CCc1nn(C(C)C(=O)NCCN2CCCCCC2)c(=O)c2cc3occc3n12 (stereo unspecified) | inconclusive [inhibitor, single point] | –
44 | Cc1ccc(NC(=O)/C(C#N)=C(\N)C(Cl)(Cl)Cl)nc1 | active: 10 µM | –
45 | O=C(CC(=O)Nc1cccc(F)c1)Nc1cccc(F)c1 | – | inactive: 4.49%
46 | CCCCOn1c(C)c(C(=O)OCC)c2c3no[n+]([O-])c3ccc21 | inconclusive [inhibitor, full curve] | –
47 | O=C(/C=C/c1cccc([N+](=O)[O-])c1)c1ccc([N+](=O)[O-])o1 | – | inactive: 11.5% [at 8.37 µM]
48 | O=C(CSc1ccc(-c2ccc(F)cc2)nn1)N1CCCc2ccccc21 | inconclusive [inhibitor, partial curve, poor fit] | –

Row | Compound | Potency | activity change, negative = inhibition
49 | Cc1c(NC(=O)c2cccc(NC(=O)COc3cccc(Br)c3)c2)c(=O)n(-c2ccccc2)n1C | inconclusive [inhibitor, single point] | –
50 | COC(=O)c1ccc(Cn2cnc3c(cnn3-c3ccc(C)c(C)c3)c2=O)o1 | inconclusive [inhibitor, single point] | –
51 | CC1(C)C2CCC(C2)C1(C)NC(=O)CNCC1CCCCC1 (stereo unspecified) | – | inactive: -12.2%
52 | S=C(NCCCc1ccccc1)Nc1ccc(Cl)cc1 | inconclusive [inhibitor, single point] | –
53 | Fc1ccc(-c2nc3n(n2)Cc2ccccc2-3)cc1 | inconclusive [inhibitor, partial curve] | –
54 | COC1=CC(=O)C[C@@H](C)[C@]12Oc1c(Cl)c(OC)cc(OC)c1C2=O | inconclusive [inhibitor, single point] | –
55 | O=C(NCCN1CCN(C(=O)NC2CCCCC2)CC1)NC1CCCCC1 | – | inactive: 6.42%
56 | CN(C)CCNc1ncnc2sc(-c3ccccc3)cc12 | inconclusive [inhibitor, partial curve] | –
57 | Cc1cc(NC(=O)CCN2CCC(C)CC2)ccc1Br | inconclusive [inhibitor, partial curve] | –
58 | COc1ccc(NS(=O)(=O)c2ccc(F)c(Cl)c2)cn1 | – | inactive: 13.7%
59 | CC1CCCCN1C(=S)Nc1ccc2nc3n(c(=O)c2c1)CCCCC3 (stereo unspecified) | inconclusive [inhibitor, single point] | –
60 | CC(C)(C)NC(=O)C1Cc2ccccc2CN1S(=O)(=O)c1ccc(F)cc1 (stereo unspecified) | – | inactive: -2.56%
61 | CN(C)Cc1cc(C(F)(F)F)ccc1C(O)(c1ccccc1)c1ccccc1 | inconclusive [inhibitor, single point] | –
62 | COc1ccccc1C(=O)Nc1nc2ccc(S(C)(=O)=O)cc2s1 | – | inactive: 8.84%
63 | O=C(CN1CCCCCC1)Nc1ccc(Br)cc1Br | inconclusive [inhibitor, single point] | –
64 | CNC1=C([N+](=O)[O-])CC([N+](=O)[O-])=C(N2CCNCC2)N1C | – | inactive: 0.838%
65 | Cc1ccc(-n2nnnc2SCC(=O)NC2CCCc3ccccc32)cc1 (stereo unspecified) | inconclusive [inhibitor, single point] | –
66 | Cc1cc(S(=O)(=O)NCCc2ccccc2)c(C)s1 | inconclusive [inhibitor, single point] | –
67 | COc1ccccc1NC(=O)c1cc(=O)[nH]c2ccccc12 | inconclusive [inhibitor, single point] | –
68 | COc1cc2c(cc1OC)C(SC)=NC1(CCCC1)C2 | inconclusive [inhibitor, partial curve] | –
69 | Cc1ccc([N+](=O)[O-])c2cccnc12 | – | inactive: 8.69%
70 | CC(CCc1ccccc1)NC(=O)C1CCN(c2nnc(-n3cccc3)s2)CC1 (stereo unspecified) | inconclusive [inhibitor, partial curve] | –
71 | O=C1NCC(COc2cccc3ccccc23)O1 (stereo unspecified) | inconclusive [inhibitor, single point] | –
